The campaign covered roughly 45,000 compounds. About 65 (0.1%) were called active. Calls follow the shape of the dose curve; as a rule, active = well fitted activation curve with a large enough effect; inconclusive = small, poorly fitted or top-dose-only effect; inactive = no such curve, though single readings can be large or run the other way. This is one part of the list.
What follows are molecules tested against Galactocerebrosidase (Homo sapiens) (UniProt P54803) (assay: A Novel Cell-Based Assay to Identify Small Molecules for B -Galactocerebrosidase). Conditions: 145M-Twi-hGALC-G270D cells (Twitcher mouse brain line with human GALC G270D), HMU-beta-Gal fluorescence, 48 h; series mostly up to 57.5 µM; activation: at the top concentration.
Method in brief: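 Brain-derived Twitcher mouse 145M-Twi cells stably expressing human GALC-G270D or wild-type GALC, treated live, then residual GALC activity read by fluorescence of HMU-b-Gal substrate (0.1 mM final) in citrate-phosphate buffer pH 5.2 with sodium taurocholate. Signal increase indicates enhancement.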
Also: 0% is about no effect; nearly all actives have a fitted effect of over 65% in size.

Chain of UniProt P54803 (P54803 whole entry, looked up): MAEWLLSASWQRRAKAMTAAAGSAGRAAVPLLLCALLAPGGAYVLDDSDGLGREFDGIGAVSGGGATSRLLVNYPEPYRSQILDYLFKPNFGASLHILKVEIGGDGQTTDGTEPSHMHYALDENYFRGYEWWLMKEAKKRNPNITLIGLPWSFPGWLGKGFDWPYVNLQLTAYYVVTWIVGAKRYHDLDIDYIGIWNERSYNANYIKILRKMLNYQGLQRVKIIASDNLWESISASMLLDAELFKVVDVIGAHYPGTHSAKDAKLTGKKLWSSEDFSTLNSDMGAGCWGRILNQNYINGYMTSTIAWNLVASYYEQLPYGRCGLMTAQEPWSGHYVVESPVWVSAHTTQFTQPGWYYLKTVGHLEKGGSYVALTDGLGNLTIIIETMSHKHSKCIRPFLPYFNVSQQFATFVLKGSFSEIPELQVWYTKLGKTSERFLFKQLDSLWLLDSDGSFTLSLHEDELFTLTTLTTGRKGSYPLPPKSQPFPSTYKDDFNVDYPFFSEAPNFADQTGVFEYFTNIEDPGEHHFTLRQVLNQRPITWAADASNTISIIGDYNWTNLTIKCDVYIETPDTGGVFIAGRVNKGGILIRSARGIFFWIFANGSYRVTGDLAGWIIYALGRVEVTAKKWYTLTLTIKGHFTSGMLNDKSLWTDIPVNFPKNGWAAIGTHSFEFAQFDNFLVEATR

activation, inactive:
Cc1nc2ccccc2c(=O)n1-c1ccc(NC(=O)C(F)(F)F)cc1 -16%
Cc1cc(NC(=O)CSc2ncc(C(=O)Nc3ccc(F)cc3)c(=O)n2C)no1 1.66%
CC1CCN(c2ccc(-c3nc(C(C)C)no3)cc2[N+](=O)[O-])CC1 -24%
CCN(CC)CCNC(=O)c1ccc(Cn2c(=O)c3cccn3c3cccnc32)cc1 -13.7%
CCOc1ccccc1NC(=O)c1c(NCc2sccc2C)sc2c1CCCCC2 -19.6%
CCCNC(=O)c1ccc(-n2c(-c3ccccc3)cc3c2CCC(C)C3)cc1 (configuration not stated) 11.4%
O=C(CC(NCc1cccnc1)C(=O)O)Nc1ccc(F)cc1 (configuration not stated) -21.8%
O=c1oc2ccc(Br)cc2cc1-c1csc(-c2ccc(Cl)cc2)n1 -15%
CCCN1C(=O)C2(c3ccccc31)c1c(oc3ccccc3c1=O)C(=O)N2CCO (configuration not stated) -0.979%
Cc1cccc(N2CCN(C(=O)CS(=O)(=O)c3cccc4nsnc34)CC2C)c1 (configuration not stated) -23.9%
C=Cc1ccc(Cn2c(C(=O)O)c(CNCc3cc(Br)ccc3OC)c3ccc(C)cc32)cc1 -12.5%
CCc1ccccc1NC(=O)N1CCN(c2cc(-c3noc(C)n3)ccc2C)CC1 -9.29%
COc1ccc2oc(=O)c(C(=O)NCCc3c(C)[nH]c4c(Cl)cccc34)cc2c1 -6.19%
COc1cc2ccccc2cc1C(=O)Nc1cccc(-c2nc3cc(C)c(C)cc3o2)c1C -11.3%
Cc1nc2nc(NCc3cccc(Br)c3)[nH]n2c(=O)c1Cc1ccccc1 -10.4%
O=C(Nc1cccc(Cl)c1Cl)c1ccc2c(c1)N(Cc1cccc(Cl)c1)C(=O)c1ccccc1S2(=O)=O 1.44%
Cn1nnnc1SCCNCc1ccc(F)cc1 -4.33%
CCOC(=O)c1cccc(NC(=O)C(CC(C)C)N2Cc3ccccc3C2=O)c1 (configuration not stated) -36.4%
O=S(=O)(Nc1ccc(Cl)cc1)c1ccc(NS(=O)(=O)c2ccc3c(c2)OCCO3)cc1 -26.4%
Cc1ccc(CN(C(=O)COc2cccc([N+](=O)[O-])c2)c2ccccn2)o1 -19.8%
CCOc1ccc(CCNC(=O)CCCn2nc(C)c3sc4ccccc4c3c2=O)cc1OCC -3.53%
O=C(CSc1nccn1-c1ccccc1)Nc1nc2ccccc2s1 -40.2%
CCOc1ccc(CNC(=O)CCC(=O)N2CC(C)Sc3ccccc32)cc1 (configuration not stated) -2.15%
COC(=O)CC1c2cc(OC)c(OC)cc2CCN1C(=O)Nc1ccc(C)cc1Cl (configuration not stated) -18.6%
COc1ccccc1Nc1nn2c(=O)c3ccc(C(=O)NCCCOC(C)C)cc3nc2s1 -22.8%
N#C/C(=C/c1cn(Cc2ccc(F)cc2)c2ccccc12)C(=O)Nc1cccc(Cl)c1 -15.1%
CCn1c2ccccc2c2nnc(SCCN3CCCCC3)nc21 -12.6%

Reference: PubChem BioAssay AID1159614 (National Center for Advancing Translational Sciences (NCATS), 2016)
